{"source": "PubChem BioAssay (NCATS)", "note": "Values joined by “and” are separate entries in the source; they are usually repeats but may differ in a detail not shown here. Equal entries are not always repeated. Inconclusive means that the source gave no clear call. Such entries were picked first, then a sample of the others. Potencies of inconclusive entries are doubtful fits and often do not repeat. Active and inactive are the calls of the source. The call rests on the fitted dose curve; in most records, active means well fitted cell-killing curve with a large enough effect; inconclusive means small, poorly fitted or top-dose-only effect, or effect the other way; inactive means no such curve, though single readings can be large or run the other way. Potency means the concentration at half of the fitted maximal effect; tags describe the fitted curve by direction and shape.", "data": [{"assay": "Viability qHTS for spleen associated tyrosine kinase inhibitor (SYKi) drug resistant MV4-11 cells (AID 1963824); further: nearly all actives have a fitted effect of over 35% in size", "conditions": "SYKi-resistant MV4-11 viability, CellTiter-Glo, 72 h; series mostly up to 45 µM", "in_short": "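SYK inhibitor-resistant MV4-11 AML cells, 500 per well, added to predispensed compounds and incubated 72 hr at 37 C, 5% CO2. Viability measured by CellTiter-Glo luminescence after 10 min at room temperature.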", "values": [{"molecule": "COc1ccncc1C(=O)NC(=O)Nc1ccc(-c2ccccc2)c(C(F)(F)F)c1", "Potency": "inconclusive: 10.3 µM [cytotoxic, partial curve]"}, {"molecule": "CCC[C@H](N[C@@H](C)C(=O)N1[C@H](C(=O)O)C[C@@H]2CCCC[C@@H]21)C(=O)O", "Potency": "inactive"}, {"molecule": "CC(C)C(=O)c1c(C(C)C)nn2ccccc12", "Potency": "inactive"}, {"molecule": "COc1ccc(C(=O)C2CCN(CC(=O)N(Cc3nc4c(c(=O)[nH]3)COCC4)CC3CC3)CC2)cc1", "Potency": "inconclusive: 29.5 µM [cytotoxic, partial curve, poor fit]"}, {"molecule": "NC(=O)NC1N=C([O][Al])NC1=O", "note": "(centres undefined)", "Potency": "inconclusive: 0.0009 µM [cytotoxic]"}, {"molecule": "CC1(NC(=O)c2ccc(C#Cc3cccc(F)c3)cn2)COC1", "Potency": "inconclusive: 16.4 µM [cytotoxic, partial curve]"}, {"molecule": "CCOc1cccc(NC(=O)c2ccc(N3CCCC3)c(C(F)(F)F)c2)c1", "Potency": "inconclusive: 16.4 µM [cytotoxic, partial curve]"}, {"molecule": "COCCN(C)Cc1ccc2nc3sc(C(=O)N(C)C4CCCCC4)cn3c2c1", "Potency": "inconclusive: 14.6 µM [cytotoxic, partial curve, poor fit]"}, {"molecule": "CCCCOCCOC(=O)c1cccnc1", "Potency": "inactive"}, {"molecule": "CN1C(=O)N(c2cc(Cl)cc(Cl)c2)C(=O)[C@@]1(C)Cc1ccc(Br)cc1", "Potency": "inconclusive: 16.4 µM [cytotoxic, partial curve, poor fit]"}, {"molecule": "Nc1nc2c(c(N3CCNCC3)n1)CCC1=C2[C@@H]2CCCC[C@@H]2O1", "Potency": "inconclusive: 5.17 µM [cytotoxic, full curve, poor fit]"}, {"molecule": "O=C(O)C1(C(=O)O)CCC1.[NH2-].[NH2-].[Pt+2]", "Potency": "inconclusive: 33.5 µM [cytotoxic, single point]"}, {"molecule": "COCCCNCC1COc2ccccc2O1", "note": "(centres undefined)", "Potency": "inactive"}, {"molecule": "CC(=O)Nc1nc2c(Oc3cc(-c4ccc(C(F)(F)F)cc4)ncn3)cccc2s1", "Potency": "inconclusive: 3.66 µM [cytotoxic, full curve]"}, {"molecule": "Cc1nc2cc(-c3cc(F)cc(C#N)c3)ccc2s1", "Potency": "inactive"}, {"molecule": "Oc1ccccc1-c1cc(-c2ccccc2F)[nH]n1", "Potency": "inconclusive: 9.2 µM [cytotoxic, partial curve]"}, {"molecule": "O=C(c1cc(O)c(O)c(O)c1)c1ccc(O)c(O)c1O", "Potency": "inconclusive: 0.0094 µM [rising, full curve]"}, {"molecule": "COc1cc2c(cc1OCCCN1CCCC1)N=C(N)C21CCC1", "Potency": "inconclusive: 29.1 µM [cytotoxic, single point] and inconclusive: 18.6 µM [cytotoxic, partial curve]"}, {"molecule": "COc1ccc(CN(CCN(C)C)c2ccccn2)cc1", "Potency": "inconclusive: 4.73 µM [cytotoxic, full curve, poor fit]"}, {"molecule": "COc1cc(O)c(C(=O)c2ccccc2)cc1S(=O)(=O)O", "Potency": "inconclusive: 29.9 µM [cytotoxic, single point]"}, {"molecule": "CC(=O)SCC(CC(=O)c1ccc(C)cc1)C(=O)O", "note": "(centres undefined)", "Potency": "inconclusive: 7.5 µM [cytotoxic, partial curve]"}, {"molecule": "CC(C)[N+](C)(CCOC(=O)C1c2ccccc2Oc2ccccc21)C(C)C", "Potency": "inconclusive: 21.1 µM [cytotoxic, single point]"}, {"molecule": "On1ncc(C2CCNCC2)c1-c1cccc(-c2ccccc2)c1", "Potency": "inconclusive: 23.1 µM [cytotoxic, single point]"}, {"molecule": "O=C(c1ccc(OC(F)F)c(C#Cc2ccccn2)c1)N1Cc2cccnc2C1", "Potency": "inconclusive: 20.6 µM [cytotoxic, single point]"}, {"molecule": "CC[C@@H](C)[C@H](N)C(=O)N1Cc2ccccc2C1", "Potency": "inconclusive: 13 µM [cytotoxic, partial curve]"}, {"molecule": "CC[C@H]1CN(c2nc(N)c(C(N)=O)nc2Cl)CCN1C1CCN(Cc2ccc(Cl)cc2)CC1", "Potency": "inconclusive: 3.26 µM [cytotoxic, full curve, poor fit]"}, {"molecule": "C[C@H](N)C(=O)N[C@@H](C)C(=O)NC1[C@H]2CN(c3nc4c(cc3F)c(=O)c(C(=O)O)cn4-c3ccc(F)cc3F)C[C@@H]12", "note": "(some centres undefined)", "Potency": "inconclusive: 29.9 µM [cytotoxic, single point]"}, {"molecule": "CC(=O)CC(c1ccc([N+](=O)[O-])cc1)c1c(O)c2ccccc2oc1=O", "note": "(centres undefined)", "Potency": "inactive"}, {"molecule": "CN1CCC(Nc2nc(Nc3ccc(Oc4ccccc4)cc3)c3c(=O)[nH]cc(Br)c3n2)CC1", "Potency": "inconclusive: 0.0103 µM [cytotoxic, full curve]"}]}]}
